Data from publication PMC7217878.
Results are given in words; binding and its absence hold for the method and conditions named. Binding seen in cells or lysates may run through a third protein. Some results given as binding are weak or reduced against the parent protein; the word gives no strength.

The chains behind the UniProt entries cited, without tags or fusion partners.
UniProt P09104: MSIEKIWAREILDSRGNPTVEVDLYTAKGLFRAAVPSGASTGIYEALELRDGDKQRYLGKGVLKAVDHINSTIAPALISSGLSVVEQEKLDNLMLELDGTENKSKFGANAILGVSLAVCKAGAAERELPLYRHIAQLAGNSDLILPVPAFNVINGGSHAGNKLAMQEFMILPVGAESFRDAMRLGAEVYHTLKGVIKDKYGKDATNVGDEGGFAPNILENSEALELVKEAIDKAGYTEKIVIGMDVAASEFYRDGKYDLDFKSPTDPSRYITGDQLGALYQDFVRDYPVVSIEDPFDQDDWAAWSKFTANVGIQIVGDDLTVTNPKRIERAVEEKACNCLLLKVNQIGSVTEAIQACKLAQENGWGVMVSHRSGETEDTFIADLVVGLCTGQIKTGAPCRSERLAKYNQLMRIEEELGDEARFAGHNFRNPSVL
UniProt Q92993: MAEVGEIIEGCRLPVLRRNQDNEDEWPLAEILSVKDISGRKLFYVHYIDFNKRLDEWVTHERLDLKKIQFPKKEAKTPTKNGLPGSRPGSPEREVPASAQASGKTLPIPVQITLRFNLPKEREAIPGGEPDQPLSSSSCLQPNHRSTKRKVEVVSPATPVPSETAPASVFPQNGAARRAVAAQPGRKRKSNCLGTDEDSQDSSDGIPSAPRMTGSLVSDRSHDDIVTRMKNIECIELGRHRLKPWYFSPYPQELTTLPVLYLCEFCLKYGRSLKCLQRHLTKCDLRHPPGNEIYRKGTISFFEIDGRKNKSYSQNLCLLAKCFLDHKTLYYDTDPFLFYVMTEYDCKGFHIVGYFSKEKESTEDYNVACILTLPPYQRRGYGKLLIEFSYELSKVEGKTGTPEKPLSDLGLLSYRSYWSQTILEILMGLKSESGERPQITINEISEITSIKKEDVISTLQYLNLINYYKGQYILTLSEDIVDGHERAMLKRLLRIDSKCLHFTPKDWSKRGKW
UniProt Q92831: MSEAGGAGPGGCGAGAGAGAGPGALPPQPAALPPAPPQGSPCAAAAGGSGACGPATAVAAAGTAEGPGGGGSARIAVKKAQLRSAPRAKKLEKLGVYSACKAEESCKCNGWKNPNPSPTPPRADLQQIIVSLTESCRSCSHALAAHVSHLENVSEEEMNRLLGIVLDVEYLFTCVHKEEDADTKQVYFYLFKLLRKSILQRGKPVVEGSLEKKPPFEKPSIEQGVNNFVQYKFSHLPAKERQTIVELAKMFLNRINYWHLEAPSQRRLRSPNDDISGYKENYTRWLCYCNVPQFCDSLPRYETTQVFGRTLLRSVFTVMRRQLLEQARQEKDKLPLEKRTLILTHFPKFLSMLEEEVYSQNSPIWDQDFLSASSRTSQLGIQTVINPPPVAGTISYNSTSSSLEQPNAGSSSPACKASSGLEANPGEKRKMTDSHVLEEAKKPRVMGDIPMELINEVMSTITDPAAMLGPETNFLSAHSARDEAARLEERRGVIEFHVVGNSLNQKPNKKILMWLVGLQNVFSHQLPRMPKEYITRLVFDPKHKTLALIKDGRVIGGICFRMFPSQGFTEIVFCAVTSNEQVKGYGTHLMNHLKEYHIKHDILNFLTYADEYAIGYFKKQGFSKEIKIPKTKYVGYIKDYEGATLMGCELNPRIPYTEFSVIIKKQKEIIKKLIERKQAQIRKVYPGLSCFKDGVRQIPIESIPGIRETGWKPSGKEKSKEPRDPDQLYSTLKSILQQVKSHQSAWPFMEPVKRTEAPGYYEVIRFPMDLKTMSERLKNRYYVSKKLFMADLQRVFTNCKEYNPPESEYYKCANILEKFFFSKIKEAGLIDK
UniProt O15379: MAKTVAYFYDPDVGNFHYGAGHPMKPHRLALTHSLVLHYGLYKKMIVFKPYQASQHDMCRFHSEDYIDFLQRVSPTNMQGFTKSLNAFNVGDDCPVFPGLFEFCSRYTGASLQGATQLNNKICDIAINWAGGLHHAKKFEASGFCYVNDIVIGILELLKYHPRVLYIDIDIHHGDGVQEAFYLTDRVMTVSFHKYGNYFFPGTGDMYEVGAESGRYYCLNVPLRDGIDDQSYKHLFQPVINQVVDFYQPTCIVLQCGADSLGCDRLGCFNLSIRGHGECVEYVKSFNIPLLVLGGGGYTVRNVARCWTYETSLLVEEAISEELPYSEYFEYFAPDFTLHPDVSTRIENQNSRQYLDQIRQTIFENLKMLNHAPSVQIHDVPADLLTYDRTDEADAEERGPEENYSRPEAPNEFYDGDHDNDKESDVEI
UniProt Q92793: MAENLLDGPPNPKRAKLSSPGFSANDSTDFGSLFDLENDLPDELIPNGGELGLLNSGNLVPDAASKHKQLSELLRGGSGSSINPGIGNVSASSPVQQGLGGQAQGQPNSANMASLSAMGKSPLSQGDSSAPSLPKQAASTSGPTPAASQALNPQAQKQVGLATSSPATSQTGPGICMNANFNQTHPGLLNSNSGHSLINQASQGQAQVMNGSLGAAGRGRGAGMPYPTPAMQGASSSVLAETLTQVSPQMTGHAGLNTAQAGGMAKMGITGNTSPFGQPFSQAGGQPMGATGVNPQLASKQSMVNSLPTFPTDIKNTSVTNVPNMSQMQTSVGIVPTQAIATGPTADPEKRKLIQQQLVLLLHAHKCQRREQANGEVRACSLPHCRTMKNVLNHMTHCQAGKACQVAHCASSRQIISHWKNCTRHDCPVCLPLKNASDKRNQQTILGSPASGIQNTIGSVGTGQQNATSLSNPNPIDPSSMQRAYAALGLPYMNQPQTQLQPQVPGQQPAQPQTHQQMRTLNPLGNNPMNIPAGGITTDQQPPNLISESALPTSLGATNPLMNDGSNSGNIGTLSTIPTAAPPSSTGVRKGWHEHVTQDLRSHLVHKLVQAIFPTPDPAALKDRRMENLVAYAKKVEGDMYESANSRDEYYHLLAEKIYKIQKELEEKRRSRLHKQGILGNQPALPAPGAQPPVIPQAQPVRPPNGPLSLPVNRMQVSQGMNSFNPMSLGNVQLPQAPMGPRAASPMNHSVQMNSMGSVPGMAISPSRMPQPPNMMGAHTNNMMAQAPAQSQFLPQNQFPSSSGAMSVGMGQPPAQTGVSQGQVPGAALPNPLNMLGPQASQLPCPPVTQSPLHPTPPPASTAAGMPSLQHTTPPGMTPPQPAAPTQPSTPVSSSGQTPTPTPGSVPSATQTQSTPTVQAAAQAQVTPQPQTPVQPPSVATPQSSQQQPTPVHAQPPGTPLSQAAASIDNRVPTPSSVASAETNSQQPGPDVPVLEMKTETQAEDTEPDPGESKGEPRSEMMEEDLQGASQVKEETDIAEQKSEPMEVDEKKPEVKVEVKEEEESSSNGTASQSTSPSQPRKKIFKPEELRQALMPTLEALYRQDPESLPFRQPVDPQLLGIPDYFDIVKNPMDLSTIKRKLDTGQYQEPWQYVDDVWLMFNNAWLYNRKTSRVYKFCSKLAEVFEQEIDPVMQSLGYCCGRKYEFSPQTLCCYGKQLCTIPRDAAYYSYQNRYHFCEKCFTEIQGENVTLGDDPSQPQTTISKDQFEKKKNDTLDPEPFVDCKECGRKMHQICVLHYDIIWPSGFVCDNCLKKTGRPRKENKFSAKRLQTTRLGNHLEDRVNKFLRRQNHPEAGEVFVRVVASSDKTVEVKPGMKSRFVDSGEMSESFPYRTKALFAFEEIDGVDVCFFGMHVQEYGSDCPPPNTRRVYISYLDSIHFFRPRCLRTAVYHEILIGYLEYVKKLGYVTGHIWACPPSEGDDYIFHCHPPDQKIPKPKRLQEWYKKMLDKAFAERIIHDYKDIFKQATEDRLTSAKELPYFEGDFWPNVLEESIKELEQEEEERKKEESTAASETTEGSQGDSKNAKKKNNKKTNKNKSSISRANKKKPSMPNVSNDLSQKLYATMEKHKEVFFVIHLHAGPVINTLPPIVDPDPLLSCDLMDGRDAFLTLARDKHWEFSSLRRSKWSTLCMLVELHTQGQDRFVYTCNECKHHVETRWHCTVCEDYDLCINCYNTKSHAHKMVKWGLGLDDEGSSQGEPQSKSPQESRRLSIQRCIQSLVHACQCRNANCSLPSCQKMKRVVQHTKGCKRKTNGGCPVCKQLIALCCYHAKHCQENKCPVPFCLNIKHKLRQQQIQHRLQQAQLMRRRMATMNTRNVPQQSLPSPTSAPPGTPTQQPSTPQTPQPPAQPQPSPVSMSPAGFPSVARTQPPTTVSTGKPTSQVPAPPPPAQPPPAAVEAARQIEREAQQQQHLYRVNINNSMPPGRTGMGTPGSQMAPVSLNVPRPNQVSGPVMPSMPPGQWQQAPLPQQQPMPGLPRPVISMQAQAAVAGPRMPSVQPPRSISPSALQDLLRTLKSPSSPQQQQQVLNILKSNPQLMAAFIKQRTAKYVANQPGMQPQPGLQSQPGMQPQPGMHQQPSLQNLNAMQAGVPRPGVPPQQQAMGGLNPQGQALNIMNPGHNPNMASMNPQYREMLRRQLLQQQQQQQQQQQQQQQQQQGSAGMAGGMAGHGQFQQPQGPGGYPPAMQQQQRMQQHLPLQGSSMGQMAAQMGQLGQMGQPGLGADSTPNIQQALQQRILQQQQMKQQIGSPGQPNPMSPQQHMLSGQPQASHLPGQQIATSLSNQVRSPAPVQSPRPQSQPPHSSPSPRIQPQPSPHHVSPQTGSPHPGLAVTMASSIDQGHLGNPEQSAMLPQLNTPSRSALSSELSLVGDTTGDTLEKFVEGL
UniProt Q92830: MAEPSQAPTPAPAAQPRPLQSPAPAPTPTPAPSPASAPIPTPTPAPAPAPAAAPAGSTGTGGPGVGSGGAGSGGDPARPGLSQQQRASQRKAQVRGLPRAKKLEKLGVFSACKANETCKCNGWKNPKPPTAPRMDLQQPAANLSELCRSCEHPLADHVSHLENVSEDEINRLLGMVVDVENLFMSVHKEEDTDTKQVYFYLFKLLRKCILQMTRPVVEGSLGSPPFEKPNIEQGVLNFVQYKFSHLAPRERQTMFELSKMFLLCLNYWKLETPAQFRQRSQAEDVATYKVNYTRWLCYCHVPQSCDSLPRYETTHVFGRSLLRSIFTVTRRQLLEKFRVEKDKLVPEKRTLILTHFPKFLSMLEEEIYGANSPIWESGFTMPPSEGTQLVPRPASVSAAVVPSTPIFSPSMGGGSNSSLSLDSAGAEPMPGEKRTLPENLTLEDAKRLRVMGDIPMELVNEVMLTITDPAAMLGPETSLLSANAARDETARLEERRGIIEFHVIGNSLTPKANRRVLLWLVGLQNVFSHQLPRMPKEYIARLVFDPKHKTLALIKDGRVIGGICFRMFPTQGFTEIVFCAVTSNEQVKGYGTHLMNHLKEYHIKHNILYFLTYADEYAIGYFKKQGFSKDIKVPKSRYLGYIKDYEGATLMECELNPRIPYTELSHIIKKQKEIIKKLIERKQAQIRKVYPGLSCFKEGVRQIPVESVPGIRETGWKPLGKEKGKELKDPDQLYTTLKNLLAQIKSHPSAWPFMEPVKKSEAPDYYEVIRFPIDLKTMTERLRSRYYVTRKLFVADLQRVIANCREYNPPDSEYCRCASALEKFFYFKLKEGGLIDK

Experiments:
[1] = target: Flag-tagged ENO2 (enolase 2), wild type (UniProt P09104); experiment: co-IP; HEK293T cells co-expressing Flag-ENO2 and a Myc- or HA-tagged enzyme; lysis in NP-40 buffer (50 mM Tris-HCl pH 7.4, 150 mM NaCl, 0.5% NP-40); M2 anti-Flag agarose beads 3-5 h at 4 °C; western blot
[2] = target: endogenous ENO2 (enolase 2) (human (endogenous in Colo357)) (UniProt P09104); experiment: co-IP; Myc-tagged PCAF and endogenous ENO2 in PDAC cells; IP and western blot; which of the two was precipitated is not told
[3] = target: endogenous ENO2 (enolase 2) (human (endogenous in Colo357)) (UniProt P09104); experiment: co-IP; Colo357 cells, both proteins endogenous; ENO2 immunopurified with ENO2 antibody and Protein A beads in NP-40 buffer; western blot for HDAC3

| Substance | binding [1] | other results |
| --- | --- | --- |
| HA-tagged TIP60 (from UniProt Q92993 1-513) (enzyme) | no binding |  |
| Myc-tagged PCAF (P300/CBP-associated factor) (from UniProt Q92831 1-832) (enzyme) | binds |  |
| Myc-tagged PCAF expressed in PDAC cells (from UniProt Q92831 1-832) (enzyme) |  | binding [2]: binds |
| endogenous HDAC3 (histone deacetylase 3) (from UniProt O15379 1-428) (enzyme) |  | binding [3]: binds |

The next lines start with results.

| binding [1] | Substance | other results |
| --- | --- | --- |
| no binding | HA-tagged CBP (from UniProt Q92793 1-2442) (enzyme) |  |
| binds | HA-tagged HDAC3 (histone deacetylase 3), wild type (from UniProt O15379 1-428) (enzyme) |  |
| no binding | HA-tagged P300 (from UniProt Q09472 1-2414) (enzyme) |  |
| no binding | Myc-tagged GCN5 (from UniProt Q92830 1-837) (enzyme) |  |
